{"source": "the supplement of paper PMC11181314", "note": "The list shows a part of the results. Single values of this set are uncertain.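 Note: stains mark DNA, RNA and nucleoli, ER, actin, Golgi, plasma membrane and mitochondria, read by high-content imaging, with DMSO controls at matching solvent concentration.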"}
{"test_system": "U2OS", "assay": "Cell Painting induction (percent of morphological features significantly changed vs DMSO); higher = stronger morphological change", "settings": "10 µM; 20 h; run: confirmation repeat", "experimental": "(§1)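 Cell Painting assay in U2OS cells: compounds at 10 µM for 20 h, six dyes, 579 robust CellProfiler features as Z-scores vs DMSO median (MAD). Induction is the % of significantly changed features (active if ≥5%); relative cell count is in % of DMSO. The primary run holds DCM compounds preselected for induction ≥10%; the confirmation repeat defines active compounds (370 of 549). Replicate agreement is low, attributed to precipitation.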"}
{"smiles": "COc1ccc(NC(=O)C(NC(=O)Cc2cccs2)c2ccccc2)cc1", "note": "(stereo not given)", "Cell Painting induction": "inactive: 1.4%"}
{"smiles": "CC1CCc2c(sc(NC(=O)C3c4ccccc4Oc4ccccc43)c2C(N)=O)C1", "note": "(stereo not given)", "Cell Painting induction": "active: 12.6%"}
{"smiles": "CCOC(=O)N1CCc2c(sc3c2c(=O)n(Cc2ccccc2)c(=O)n3CC(=O)NCC2CCCO2)C1", "note": "(stereo not given)", "Cell Painting induction": "active: 11.2%"}
{"smiles": "O=C(NCCCN1CCOCC1)c1cc(-c2ccc(Cl)c(Cl)c2)on1", "Cell Painting induction": "active: 23.8%"}
{"smiles": "Cc1ccc2c(C)nc(Nc3nc(=O)cc(CSc4nc5ccccc5s4)[nH]3)nc2c1", "Cell Painting induction": "inactive: 2.1%"}
{"smiles": "CC1CCN(c2c(NCc3ccc(C(=O)NCCc4ccc(Cl)cc4)cc3)c(=O)c2=O)CC1", "Cell Painting induction": "active: 14.7%"}
{"smiles": "CCOc1nc(-c2ccccc2)ccc1-c1noc(-c2cccnc2)n1", "Cell Painting induction": "inactive: 0%"}
{"smiles": "COc1ccc(CCNC(=O)C2CCN(Cc3nc(-c4ccc(Cl)cc4)oc3C)CC2)cc1OC", "Cell Painting induction": "active: 6.4%"}
{"smiles": "CCn1cc(C(=O)N2CCN(c3ccccn3)CC2)c(=O)c2cc(S(=O)(=O)N(C)C3CCCCC3)ccc21", "Cell Painting induction": "inactive: 3.5%"}
{"smiles": "COc1ccccc1N1CCN(C(=O)c2sc3ncn(CC(=O)N4CCC(C)CC4)c(=O)c3c2C)CC1", "Cell Painting induction": "active: 25.6%"}
{"smiles": "O=C(CN1C(=O)CSc2ccc(S(=O)(=O)N3CCCCCC3)cc21)NCCc1ccccc1", "Cell Painting induction": "active: 7.1%"}
{"smiles": "Cc1nn2c(Nc3ccc(F)cc3)c3c(nc2c1-c1ccccc1)CCC3", "Cell Painting induction": "inactive: 1.7%"}
{"smiles": "COc1cc(C2Nc3ccc4ncccc4c3C3=C2C(=O)CCC3)cc(OC)c1OC", "note": "(stereo not given)", "Cell Painting induction": "active: 9.3%"}
{"smiles": "COc1ccccc1N1CCN(S(=O)(=O)c2ccc(-c3cnc(C4CC4)o3)cc2)CC1", "Cell Painting induction": "active: 44.7%"}
{"smiles": "COc1ccc(CN(C(=O)c2oc3cc(C)ccc3c2C)C2CCS(=O)(=O)C2)cc1OC", "note": "(stereo not given)", "Cell Painting induction": "inactive: 3.6%"}
{"smiles": "COc1nnc(-c2ccc(N3CCOCC3)c(NC(=O)C3CCCCC3)c2)c2ccccc12", "Cell Painting induction": "inactive: 0.5%"}
{"smiles": "COc1ccc(-c2cc(C(F)F)n3ncc(C(=O)Nc4cnn(Cc5ccccc5)c4)c3n2)cc1", "Cell Painting induction": "inactive: 0%"}
{"smiles": "CCOC(=O)C(C)Sc1nc(O)c2cnn(-c3ccc(F)cc3)c2n1", "note": "(stereo not given)", "Cell Painting induction": "inactive: 1.6%"}
{"smiles": "COC(=O)c1ccc(C(=O)OC)c(NC(=S)N2CCC(N3CCCCC3)CC2)c1", "Cell Painting induction": "active: 8.3%"}
{"smiles": "C=CCOc1cccc(C2c3c(oc4ccccc4c3=O)C(=O)N2c2ccccn2)c1", "note": "(stereo not given)", "Cell Painting induction": "inactive: 2.1%"}
{"test_system": "U2OS", "assay": "Cell Painting induction (percent of morphological features significantly changed vs DMSO); higher = stronger morphological change", "settings": "10 µM; 20 h; run: primary screen (compounds selected for induction >=10%)", "experimental": "as §1", "units": {"Cell Painting induction": "%"}}
{"smiles": "COc1ccc(NC(=O)C(NC(=O)Cc2cccs2)c2ccccc2)cc1", "note": "(stereo not given)", "Cell Painting induction": 20.9}
{"smiles": "CC1CCc2c(sc(NC(=O)C3c4ccccc4Oc4ccccc43)c2C(N)=O)C1", "note": "(stereo not given)", "Cell Painting induction": 21.4}
{"smiles": "CCOC(=O)N1CCc2c(sc3c2c(=O)n(Cc2ccccc2)c(=O)n3CC(=O)NCC2CCCO2)C1", "note": "(stereo not given)", "Cell Painting induction": 12.4}
{"smiles": "O=C(NCCCN1CCOCC1)c1cc(-c2ccc(Cl)c(Cl)c2)on1", "Cell Painting induction": 23}
{"smiles": "Cc1ccc2c(C)nc(Nc3nc(=O)cc(CSc4nc5ccccc5s4)[nH]3)nc2c1", "Cell Painting induction": 20.9}
{"smiles": "CC1CCN(c2c(NCc3ccc(C(=O)NCCc4ccc(Cl)cc4)cc3)c(=O)c2=O)CC1", "Cell Painting induction": 27.1}
{"smiles": "CCOc1nc(-c2ccccc2)ccc1-c1noc(-c2cccnc2)n1", "Cell Painting induction": 11.2}
{"smiles": "COc1ccc(CCNC(=O)C2CCN(Cc3nc(-c4ccc(Cl)cc4)oc3C)CC2)cc1OC", "Cell Painting induction": 43}
{"smiles": "CCn1cc(C(=O)N2CCN(c3ccccn3)CC2)c(=O)c2cc(S(=O)(=O)N(C)C3CCCCC3)ccc21", "Cell Painting induction": 12.4}
{"smiles": "COc1ccccc1N1CCN(C(=O)c2sc3ncn(CC(=O)N4CCC(C)CC4)c(=O)c3c2C)CC1", "Cell Painting induction": 23}
{"smiles": "O=C(CN1C(=O)CSc2ccc(S(=O)(=O)N3CCCCCC3)cc21)NCCc1ccccc1", "Cell Painting induction": 11.9}
{"smiles": "Cc1nn2c(Nc3ccc(F)cc3)c3c(nc2c1-c1ccccc1)CCC3", "Cell Painting induction": 20}
{"smiles": "COc1cc(C2Nc3ccc4ncccc4c3C3=C2C(=O)CCC3)cc(OC)c1OC", "note": "(stereo not given)", "Cell Painting induction": 15}
{"smiles": "COc1ccccc1N1CCN(S(=O)(=O)c2ccc(-c3cnc(C4CC4)o3)cc2)CC1", "Cell Painting induction": 34.4}
{"smiles": "COc1ccc(CN(C(=O)c2oc3cc(C)ccc3c2C)C2CCS(=O)(=O)C2)cc1OC", "note": "(stereo not given)", "Cell Painting induction": 12.6}
{"smiles": "COc1nnc(-c2ccc(N3CCOCC3)c(NC(=O)C3CCCCC3)c2)c2ccccc12", "Cell Painting induction": 19.3}
{"smiles": "COc1ccc(-c2cc(C(F)F)n3ncc(C(=O)Nc4cnn(Cc5ccccc5)c4)c3n2)cc1", "Cell Painting induction": 34.7}
{"smiles": "CCOC(=O)C(C)Sc1nc(O)c2cnn(-c3ccc(F)cc3)c2n1", "note": "(stereo not given)", "Cell Painting induction": 13.1}
{"smiles": "COC(=O)c1ccc(C(=O)OC)c(NC(=S)N2CCC(N3CCCCC3)CC2)c1", "Cell Painting induction": 17.6}
{"smiles": "C=CCOc1cccc(C2c3c(oc4ccccc4c3=O)C(=O)N2c2ccccn2)c1", "note": "(stereo not given)", "Cell Painting induction": 43.4}
